# Over roughly 33,000 sequences, “E-score (dimensionless, -0.5 to 0.5)” has its median near -0.058; the highest 2% begin near 0.35. The list shows a part of the results.
# Tested on: MvaT
# Assay: PBM 8-mer E-score (mean of HK and ME arrays) (E-score (dimensionless, -0.5 to 0.5)); higher = stronger relative binding preference; most listed sequences are background and not binding sites
# Summary of the method: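 Full-length P. aeruginosa MvaT carrying an N-terminal glutathione S-transferase tag was tested by protein binding microarray following a previously described protocol. Two universal double-stranded 60-mer arrays, ME and HK, were used, each with a constant 25-mer primer region and a variable 35-mer region covering all 8-mers. The rank-based E-score is the mean of the two arrays, parsed with a custom script. Its range runs from -0.5 to 0.5 for each 8-mer.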
row,Sequence,PBM 8-mer E-score
1,GATTTCAA,0.0191
2,GGTTCTGA,-0.112
3,GCATGCGA,-0.143
4,GCCGTGAC,-0.222
5,CGTTACGA,-0.0963
6,CGTCGCAG,-0.0746
7,AGCCCAAC,-0.251
8,AGTCATCA,-0.0305
9,ATCGACTC,-0.064
10,CAATGATG,0.113
11,CCCGGTGA,-0.208
12,GGATGGTA,0.0459
13,GGACATTA,0.103
14,ACGTAACC,-0.0939
15,CATCTTGA,-0.092
16,ACTGACCG,-0.1
17,AACGCATT,0.127
18,ATCTTGAG,0.11
19,CAGGGCGA,-0.194
20,GGGACGAA,-0.231
21,GGAGATAC,-0.133
22,CGTGACAA,-0.0139
23,CTTCCCGA,-0.073
24,CGAATACG,0.105
25,CAACCTCG,-0.176

row,Sequence,PBM 8-mer E-score
1,CGGCATCC,-0.205
2,AAGCAGGT,0.0586
3,ACCGGAGC,-0.275
4,CTTCCCTC,-0.21
5,ACCTCCCT,-0.442
6,ACGCCACA,-0.0172
7,CTGTAAAC,0.0598
8,TAGAGGGA,-0.155
9,CGTATACC,-0.0453
10,CCAATCTA,0.147
11,AATCCCGC,-0.0144
12,AGTAAGTC,0.0956
13,TACCAACA,0.0228
14,TCTGTGCA,-0.0618
15,TGGAGAAA,-0.0322
16,GCCTGACA,-0.188
17,CTATCTAC,0.0623
18,AACATTTG,0.103
19,CTAGCTTC,-0.25
20,ACATCTCT,0.0261
21,AGTCGTCA,-0.101
22,GGCAAAAA,0.0151
23,AAAACGCG,0.148
24,GGAGGGTA,-0.136
25,CCCTACAA,-0.153

row,Sequence,PBM 8-mer E-score
1,TGGCCAAA,-0.19
2,ACCACCTC,-0.1
3,GATCGTAC,-0.0743
4,AAGGTCCG,-0.195
5,CAGTTTCC,-0.0848
6,GATTCGCC,-0.089
7,CGCCAGTA,-0.0222
8,GCATGTCA,0.0367
9,CCCTCCGG,-0.369
10,GGCCGAAC,-0.196
11,CGTCGAAA,0.147
12,GCTTCAAC,-0.0192
13,GAGGTGAA,-0.212
14,CCAAAGAG,-0.0873
15,TCGTATAA,0.148
16,AAATAACC,0.375
17,AATTTTGG,0.205
18,AGAGGAGG,-0.347
19,ATACGCCA,0.108
20,CACGCCCA,-0.108
21,CGGCGGGA,-0.215
22,AAGGAATA,0.129
23,CAACCGTG,-0.00442
24,CCCACATC,-0.0956
25,ACGAGTAC,0.047

row,Sequence,PBM 8-mer E-score
1,CCTCAGCC,-0.31
2,GGTCAACC,-0.0984
3,AGATTACA,0.211
4,GCTAAACC,-0.0867
5,GAGAGCAA,-0.125
6,AGCTTTAA,0.191
7,GAATCGTA,-0.0702
8,GTTCGCGA,-0.0992
9,ACTAAGAC,0.124
10,AGTTATAC,0.393
11,ACCGAGAC,-0.139
12,GAGCCGCC,-0.287
13,CTGTCCCA,-0.0197
14,CTCGTCAA,-0.174
15,ATGGAATC,-0.0791
16,CTCACCAA,0.0522
17,ACGTGCGA,-0.0735
18,ATTTGTCC,0.0705
19,ATCAAGAG,0.0564
20,CAGCACCC,-0.198
21,GCTGGCAC,-0.298
22,ATTGGACC,-0.203
23,GTCTCTAA,0.00249
24,CCAAAGCC,-0.213
25,CCGTCTAG,-0.262

row,Sequence,PBM 8-mer E-score
1,ACACAGTC,-0.0997
2,AACCGCAA,0.00741
3,CTGATGCC,-0.231
4,CTTTCTCC,-0.155
5,CTAATCAC,0.0359
6,ACTACATA,0.223
7,GTTCCCGA,-0.223
8,GCCCTAAC,-0.154
9,AAGGACTG,-0.152
10,CTCATGGC,-0.172
11,TAGCTATA,0.241
12,AATGAACA,0.2
13,GTATACGA,0.184
14,CATTTTCC,0.0485
15,GGCACGCC,-0.365
16,CAAAAGGC,-0.139
17,TTAAACAA,0.321
18,CATCCGGG,-0.263
19,GAACTTTA,0.346
20,CGGGCCTA,-0.32
21,GACGAGCC,-0.303
22,ATGTATAC,0.332
23,CATTGATC,0.161
24,GCATGCTA,-0.195
25,ACGACCCA,-0.13

row,Sequence,PBM 8-mer E-score
1,CGGCCACA,-0.266
2,CGCAATTC,0.186
3,ACGCGTAA,-0.00986
4,AGGCTCAA,-0.283
5,ATGAATGG,0.0285
6,ACCCGGAT,-0.142
7,CGGACCAG,-0.215
8,ACACGGCG,-0.119
9,CAAAGCGC,-0.133
10,GGCTATAA,0.151
11,AGATAGAT,0.152
12,ATCCTTAG,-0.00498
13,ATCTCACG,-0.105
14,ATCCCGCC,-0.0462
15,ACCACAGG,-0.115
16,AACCTCAT,-0.0903
17,GCAACAGA,-0.126
18,AAGTGAAT,0.0625
19,CAGTCTTC,-0.152
20,TAGTTACA,0.247
21,CAGAGGCG,-0.168
22,GTTCCAAC,0.0038
23,ACTCGCTG,-0.0519
24,ACCTCAGG,-0.21
25,ACCAATCG,0.0603

row,Sequence,PBM 8-mer E-score
1,AGAATGAC,0.0631
2,CACCCGGC,-0.0876
3,GTCCGGAC,0.0224
4,CTCGCCAG,-0.097
5,CTCTACCA,-0.0928
6,AGTAGTGA,0.21
7,AGAGGGAT,-0.168
8,AGGGAGGG,-0.265
9,GGCTATCA,-0.0897
10,CACTCGAA,-0.142
11,AAGAGTTG,-0.0631
12,AGTATGCA,0.192
13,GCGGACAA,0.0659
14,AAAAATAC,0.158
15,ACAAACTC,0.14
16,ACCTACGG,-0.191
17,CGGAAGAG,-0.217
18,GGATATGA,0.0688
19,GTGAACTA,0.111
20,CTCTCGAA,-0.0527
21,AAGTCGGA,-0.0793
22,AATCAGAT,-0.0177
